The list shows a part of the results.
These molecules were tested on S. aureus RN4220 (assay: growth inhibition call (relative growth <= 0.2)). Details: 50 µM.

Growth inhibition call, inactive:
C[C@@H]1CCCCO[C@@H](CN(C)Cc2ccncc2)[C@H](C)CN([C@H](C)CO)C(=O)c2cc(NC(=O)NC3CCCCC3)ccc2O1
COc1ccc(NC(=O)Nc2cccc3c2O[C@H](CN(C)Cc2ccc(Cl)c(Cl)c2)[C@H](C)CN([C@H](C)CO)C3=O)cc1
COc1cccc(NC(=O)N[C@H]2CC[C@@H](CC(=O)N3CCOCC3)O[C@@H]2CO)c1
Cc1cnc(Nc2ccc(F)cc2Cl)nc1-c1c[nH]c(C(=O)N[C@H](CO)c2cccc(Cl)c2)c1
Cc1ncc([N+](=O)[O-])n1C
C[C@@H]1CCCCO[C@@H](CN(C)S(=O)(=O)c2ccc(Cl)cc2)[C@@H](C)CN([C@H](C)CO)C(=O)c2cc(NC(=O)Nc3ccc(C(F)(F)F)cc3)ccc2O1
COc1ccc([Si](C)(C)[C@@H]2[C@@H](CCO)O[C@]3(C(=O)N(Cc4ccc(N5C(=O)c6ccccc6Oc6ccccc65)cc4)c4ccccc43)[C@H]2C)cc1
O=C(NCCCN1CCOCC1)c1ccc(Cl)cc1
COc1ccc(NC(=O)N(C)C[C@@H]2OCCCC[C@@H](C)Oc3ccc(NC(=O)C4CCCCC4)cc3C(=O)N([C@@H](C)CO)C[C@@H]2C)cc1
CC1(C)C(=O)C=CC2(C)C1C=CC1(C)C2CCC2(C)C(c3ccoc3)OC(=O)C3OC312 (stereo unspecified)
NC/C=C\C(=O)O
Cc1ccccc1CCCCN
C[C@@H]1CN([C@H](C)CO)C(=O)c2cccc(NC(=O)c3ccc(-c4nccs4)cc3)c2O[C@H]1CN(C)S(=O)(=O)c1cn(C)cn1
COc1ccc(S(=O)(=O)N(C)C[C@@H]2OCCCC[C@@H](C)Oc3ccc(NS(=O)(=O)c4cn(C)cn4)cc3C(=O)N([C@H](C)CO)C[C@H]2C)cc1
COc1ccc(S(=O)(=O)N(C)C[C@H]2Oc3ccc(NS(=O)(=O)c4ccc(C)cc4)cc3CC(=O)N([C@H](C)CO)C[C@H]2C)cc1
c1cnc(-c2cn[nH]c2)cn1
C[C@@H]1CCCCO[C@H](CN(C)Cc2ccc(C(=O)O)cc2)[C@@H](C)CN([C@H](C)CO)C(=O)c2cc(NC(=O)Cc3ccccc3)ccc2O1
C[C@H](CO)N1C[C@H](C)[C@H](CN(C)S(=O)(=O)c2ccccc2)Oc2ncc(C#CC3(O)CCCC3)cc2C1=O
Cc1noc(C)c1NC(=O)Nc1ccc2c(c1)C(=O)N([C@H](C)CO)C[C@@H](C)[C@H](CN(C)Cc1ccc(-c3ccccc3)cc1)O2
C[C@@H]1CCCCO[C@@H](CN(C)Cc2ccc(Cl)c(Cl)c2)[C@@H](C)CN([C@@H](C)CO)C(=O)c2cc(NC(=O)Cc3ccccc3)ccc2O1
CCOc1ccc(C(=O)Nc2ccc(N3CCN(C(=O)c4cccs4)CC3)c(Cl)c2)cc1Br
CO[C@H]1CN(C)C(=O)c2cc(NS(=O)(=O)CC(F)(F)F)ccc2OC[C@@H](C)N(C(=O)c2ccc3c(c2)OCO3)C[C@@H]1C
C[C@H]1CN([C@@H](C)CO)C(=O)c2cc(NC(=O)CCCN(C)C)ccc2O[C@@H]1CN(C)C(=O)Nc1ccc2c(c1)OCO2
C[C@H](CO)N1C[C@H](C)[C@@H](CN(C)C(=O)Nc2ccc(F)cc2)OCCCC[C@H](C)Oc2ccc(NC(=O)c3ccncc3)cc2C1=O
C[C@H]1CN([C@@H](C)CO)C(=O)c2cc(NS(=O)(=O)c3cn(C)cn3)ccc2O[C@@H]1CN(C)C(=O)Nc1ccc2c(c1)OCO2
COc1ccc(CNC(=O)c2cc3c(c(-c4cccc(-c5ccc(C#N)cc5)c4)n2)[C@H](CCO)N([S@@](=O)C(C)(C)C)C3)cc1
CCCNC(=O)N(C)C[C@@H]1Oc2cc(-c3ccccc3F)ccc2S(=O)(=O)N([C@H](C)CO)C[C@@H]1C
C[C@H](CO)N1C[C@H](C)[C@@H](CN(C)C(=O)NC2CCCCC2)Oc2cc(-c3cccnc3)ccc2S1(=O)=O
COc1ccc(CN(C)C[C@H]2Oc3ccc(NS(=O)(=O)c4c(C)noc4C)cc3CC(=O)N([C@H](C)CO)C[C@H]2C)cc1
C[C@H]1CCCCO[C@H](CN(C)Cc2ccncc2)[C@@H](C)CN([C@@H](C)CO)C(=O)c2cc(NC(=O)Nc3ccccc3)ccc2O1

Growth inhibition call, active:
CCN1CCN(c2cc3c(cc2F)c(=O)c(C(=O)O)cn3C2CC2)CC1
